Test results: PubChem BioAssay AID493208 (National Center for Advancing Translational Sciences (NCATS), 2011)
In all, about 44,000 compounds went through this assay and about 340 (0.77%) were called active. Not shown: some 5% with an inconclusive outcome. The call rests on the fitted dose curve; in most records, active means well fitted inhibition curve with a large enough effect; inconclusive means small, poorly fitted or top-dose-only effect; inactive means flat fitted curve, though single readings scatter. The list shows a part of the results.

Test: Acumen qHTS Assay for Inhibitors of the mTORC1 Signaling Pathway in MEF (Tsc2-/-, p53-/-) Cells: Sytravon; further: nearly all actives have a fitted effect of over 50% in size;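 on activity change, negative = inhibition: plate controls were DMSO for no effect and rapamycin for full effect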
Conditions: phospho-rpS6 immunofluorescence/PI, 24 h; series mostly up to 38.3 µM; activity change, negative = inhibition: at the top concentration
How it was run: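 Immunofluorescence of rpS6 phosphorylation in Tsc2-/-, p53-/- MEFs after 24 h compound exposure, normalized to propidium iodide signal. Activity is expressed as % positive cells, thresholded with 7.5 nM rapamycin.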
Potency means the concentration at half of the fitted maximal effect.

SMILES | activity change, negative = inhibition | Potency
CC(=O)N1CCCc2cc(S(=O)(=O)N3CCCC(C(=O)Nc4cccc(Cl)c4C)C3)ccc21 (stereo unspecified) | inactive: -0.644% | 
Cc1ccc(C)c(OC(=O)CSc2nnc(-c3ccc4c(c3)OCO4)o2)c1 | inactive: 3.55% | 
COC(=O)c1ccc(Cn2c(SCC(=O)N(C)c3ccccc3)nc3ccccc32)cc1 | inactive: 0% | 
CCOc1cc(C(=O)Nc2ccc(S(=O)(=O)Nc3cc(OC)nc(OC)n3)cc2)cc(OCC)c1OCC | inactive: 0.339% | 
O=C(CCCn1c(=O)c2ccccc2n(Cc2cccc(F)c2)c1=O)NCc1ccccc1Cl | inactive: -16.5% | 
O=C(Nc1ccc(S(=O)(=O)N(Cc2ccccc2)c2ccccc2)cc1)c1ccc(F)cc1 | inactive: -6.73% | 
O=C(CCc1ccccc1)N1CCc2c([nH]c3ccccc23)C1c1ccc(F)cc1 (stereo unspecified) | inactive: 0.0362% | 
CCCCNC(=O)c1sc2ncccc2c1-n1cccc1 | inactive: -0.55% | 
Cc1cc2oc(C(=O)Nc3c(C)n(C)n(-c4ccccc4)c3=O)cc(=O)c2cc1C | inactive: 0.167% | 
COc1ccc(-c2cc(C(=O)Nc3c(C)n(C)n(-c4ccccc4)c3=O)no2)cc1 | inactive: 1.77% | 
CN1C(=O)c2ccccc2Sc2ccc(NC(=O)c3ccc(C#N)cc3)cc21 | inactive: -6% | 
COC(=O)C(CCSC)NC(=O)c1cc2c(n(-c3ccccc3)c1=O)CC(C)(C)CC2=O (stereo unspecified) | inactive: -0.0536% | 
CCOC(=O)Cn1c(=O)n(-c2ccc(Cl)cc2)c2nc(-c3ccc(Cl)cc3)nc(C(N)=O)c21 | inactive: 0.251% | 
Cc1nn(C(C)(C)C)c(OC(=O)c2c(F)cccc2F)c1Sc1ccccc1 | inactive: -3.53% | 
COc1cc(CNc2ccc3[nH]c(=O)[nH]c3c2)cc(Cl)c1OCc1ccc(F)cc1 | inactive: 0.475% | 
COc1ccc(NC(=O)CN(c2ccc(C)cc2)S(=O)(=O)c2cccs2)cc1 | inactive: 1.1% | 
Cc1cccc(NS(=O)(=O)c2ccc3c(c2)CCCN3C(=O)C2CCC2)c1C | inactive: -17.7% | 
Cc1ccc2c(=O)cc(C(=O)Nc3nc4ccc(Cl)cc4s3)oc2c1 | inactive: -3.33% | 
O=C(Nc1ccc(C(=O)OCc2cc(=O)n3c4c(sc3n2)CCCC4)cc1)c1cccc(F)c1 | inactive: 0% | 
Cc1cccc(C(=O)Nc2ccccc2OCc2cc(=O)n3c(C)csc3n2)c1 | inactive: 6.3% | 
COc1ccc(CCNc2nc3c(c(=O)n(C)c(=O)n3C)n2Cc2ccccc2Cl)cc1OC | inactive: -7.92% | 

SMILES | activity change, negative = inhibition | Potency
Cc1csc2nc(-c3cccc(NC(=O)c4c(F)cccc4F)c3)cn12 | inactive: 2.68% | 
O=C(Cn1cc(S(=O)(=O)Cc2ccccc2F)c2ccccc21)NCc1ccccc1 | inactive: 2.25% | 
CCOc1ccc(Nc2c3c(nc4nncn24)CCC3)cc1 | inactive: -13.8% | 
O=C(NCCc1ccccc1)c1cc(-c2ccc(Cl)c(Cl)c2)on1 | inactive: -21.5% | 
Cc1c(CC(=O)NCc2ccccc2Cl)c(=O)oc2cc(O)ccc12 | inactive: 1.64% | 
COc1cc(OC)cc(N2C(=O)CSC23C(=O)Nc2ccccc23)c1 (stereo unspecified) | inactive: -1.12% | 
COc1ccc(C(=O)OCc2cc(=O)n3nc(C4CC4)sc3n2)cc1OC | inactive: -9.14% | 
CCCNC(=O)CSc1cn(CC(=O)N2CCCCCC2)c2ccccc12 | inactive: -5.8% | 
O=C(CSc1nc2sc3c(c2c(=O)[nH]1)CCCC3)Nc1ccccc1F | inactive: 1.02% | 
CCOc1ccc(-c2nnc(SCC(=O)Nc3cccc(Cl)c3C)o2)cc1 | inactive: -0.131% | 
CC(C)Oc1ccc(CNS(=O)(=O)c2ccc(-c3cc(C(F)(F)F)on3)s2)cc1 | inactive: -2.52% | 
Cc1ccc(NC(=O)CCn2cnc3onc(-c4ccc(F)cc4)c3c2=O)c(Br)c1 | inactive: -6.19% | 
Cc1ccc2nc(CN3CCN(S(=O)(=O)c4ccc(F)cc4)CC3)oc2c1 | inactive: 0% | 
Cc1ccc2oc(C(=O)Nc3ccc(S(=O)(=O)Nc4nc(C)cc(C)n4)cc3)cc(=O)c2c1 | inactive: 4.51% | 
Cc1cc2c(cc1S(=O)(=O)Nc1cccc(Cl)c1C)OCCN2C | inactive: -10% | 
COc1ccc(-c2nc3ccccc3o2)cc1NC(=O)c1ccc(-c2cccc(Cl)c2C)o1 | inactive: -3.66% | 
Cc1c(-c2nc(-c3ccc4c(c3)OCO4)no2)nnn1-c1cccc(C(F)(F)F)c1 | inactive: 7.3% | 
Cc1ccc(Cl)cc1N1CCN(C(=O)COCc2cc(-c3ccc4c(c3)OCO4)on2)CC1 | inactive: 0.165% | 
Cc1ccc(CNC(=O)C2CCCN(Cc3nc(-c4cccc(C)c4)oc3C)C2)cc1 (stereo unspecified) | inactive: -11.6% | 
COc1cccc(NC(=O)C2CCN(c3nnc(-n4c(C)ccc4C)s3)CC2)c1 | inactive: -5.36% | 
Cc1ccc(-c2nc3c(c(SCC(=O)Nc4cccc(C(=O)O)c4)n2)Cc2cccc(C)c2O3)cc1 | inactive: 0.246% | 

SMILES | activity change, negative = inhibition | Potency
CCN(CC)CCNC(=O)c1ccc2c(=O)n3nc(Nc4ccccc4)sc3nc2c1 | inactive: -4.99% | 
CC1=C(C(=O)Nc2cccc(C(F)(F)F)c2)C2(CCN(C(C)C)CC2)OC1=O | inactive: -2.47% | 
Cc1cc(C)c(NC(=O)Cc2ccc(-n3c(C)nc4cccnc43)cc2)c(C)c1 | inactive: -7.38% | 
COc1ccc(CNC(=O)CS(=O)(=O)c2cccc3nsnc23)cc1 | inactive: 0.29% | 
Cc1ccc(OC(=O)CSc2nnc(-c3cccs3)o2)c(C)c1 | inactive: -1.94% | 
COc1ccc(Cl)cc1C(=O)NCc1nc(-c2cccc(C)c2)no1 | inactive: 4.63% | 
O=C(c1ccc([N+](=O)[O-])cc1)N1c2ncnn2C2(CCCCC2)[C@@H]2CCCC[C@@H]21 | inactive: 0% | 
CC1=C(C(=O)OC2CCCCCC2)C(c2ccc(Cl)cc2)CC(=O)N1 (stereo unspecified) | inactive: -16% | 
Cc1ccc2nc(-c3ccco3)c(Nc3ccc4c(c3)OCCO4)n2c1 | inactive: -6.31% | 
CC(=O)Nc1ccc(NC(=O)C2Cc3ccccc3N2C(=O)c2ccccc2)cc1 (stereo unspecified) | inactive: 4.4% | 
COc1ccc(Cn2c(CCC(=O)Nc3ccccc3OC)nc3cccnc32)cc1 | inactive: -16.7% | 
COc1cccc2[nH]c(C(=O)NCc3ccc4c(c3)CCN4C(=O)c3ccc(F)cc3)cc12 | inactive: -23.3% | 
COc1ccc(CNC(=O)c2ccc(-c3nc(CS(=O)c4ccc(C)cc4)c(C)o3)cc2)cc1 (stereo unspecified) | inactive: -14.5% | 
CC(C)OCCCn1c(=O)c2ccccc2n2c(-c3ccccc3F)nnc12 | inactive: -8.02% | 
Cc1oc2ccc(O)c(CN3CCCC(C)C3)c2c1C(=O)Nc1ccccc1 (stereo unspecified) |  | active: 14.7 µM
COc1ccc2c(c1)c(=O)c(C(=O)c1ccc(Cl)cc1)cn2CC(=O)Nc1ccc2c(c1)OCCO2 | inactive: 1.13% | 
O=C(CSc1cn(CCNC(=O)c2c(F)cccc2F)c2ccccc12)Nc1ccccc1F | inactive: -2.48% | 
Cc1ccc2nc(-c3c[nH]c4ccccc34)c(Nc3ccc(F)cc3)n2c1 | inactive: -4.52% | 
Cc1ccc(CNC(=O)C(C)n2c(=O)cc(-c3ccccc3)c3c(C)nn(C)c32)cc1 (stereo unspecified) | inactive: -4.74% | 
